Experimental findings from the supplement of paper PMC11417369 are described below.

The other results are listed elsewhere or left out.

For the test, the system named is PfHDP1 homeodomain (GST-tagged). Description: gcPBM binding intensity (ln(normalized median fluorescence intensity)); higher = stronger DNA binding. In a few lines:
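After 1 h on an Agilent 4 × 180k array of primer-extended double-stranded 36-bp intergenic genomic probes and negative controls, bound GST-tagged P. falciparum DNA-binding domains were detected with Alexa488 anti-GST antibody and scanned at 488 nm. The domains had been expressed in E. coli, and binding took place in 1× PBS with 1% milk, 0.2 mg/ml BSA, 0.5% salmon testes DNA and 0.03% Triton X-100. Binding intensity is the highest Masliner-normalised natural-log median intensity across replicate spots of either probe orientation.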
On to GTATAAAAGTAACTAGTGCATTACATATGAATAAAA, for which the “gcPBM binding intensity (ln)” value amounted to 9.14.

With “CCTTGCCCCAGGAGTTCACACACATAATAGATTGTC [CACACA_site8138]”, the “gcPBM binding intensity (ln)” value turned out to be 6.63. For the sequence “TTTTTTCATATAAATACATGCACACAAAAATATCAA [TGCATGCA_site602]”, the “gcPBM binding intensity (ln)” value turned out to be 8.53. With “AATAACAAAATATTAACACACATAACATATTATAAA [CACACA_site2803]” the figure was 6.46. For “TAATGTTTTTTTTGTTTACCAAAAATAATACATTAT [CACACA_negctrl_site203]”, the “gcPBM binding intensity (ln)” value came out at 5.92. The result for “TATTTCTTTATTGGCACACATTTTTTCAATTATATA [CACACA_site4975]” reads 6.96; that for “GCAAATATGTTGATATGTACATATATATATATATAT [XGTACX_site445]”, 9.28; that for “ATATACAAATATATATATATATATATATATATATAT [CACACA_negctrl_site886]”, 9.35. The result for “AAAAAATATACATATACACACATATGTATATATAAT [CACACA_site8676]” reads 6.34. Take “ATTATTTTAATAAAACGTACAAAATATAAATCAAAA [XGTACX_site3770]”: the “gcPBM binding intensity (ln)” value came out at 6.83.

Regarding “AGGTAGAAAAAAGACACACACATTATGTATATATAT [CACACA_site377]”, the “gcPBM binding intensity (ln)” value was 7.04. As for “TTATAGGATCAAGCGCGTACATATCTTTATAAAAGA [XGTACX_site5775]”, the “gcPBM binding intensity (ln)” value was determined as 6.31. With “ATATATATATATGTGTGTACATATATGTGGATGGAT [XGTACX_site6240]” the figure was 9.24; with “TTTTAAATCTTATATTCCCCACATAAATAGCTCTCT [GTGCAC_negctrl_site665]”, 6.53; with “ACAACAAAAATAAGCACACACAAATATACATACATA [CACACA_site7664]”, 6.55. The result for “ACATAAGAACATATTTGTACGTATATAAATTAAATA [XGTACX_site6127]” reads 6.42; that for “AAAATTTATATAAGCACACAAATATATATTTATATC [CACACA_site3291]”, 6.56; that for “TTATTTTTGTTTTGAAGTACAAAAAAATATATTCTT [XGTACX_site6416]”, 6.25. For the sequence “AGTTTATAGTGATATTGTACATATATATATATATAT [XGTACX_site572]”, the “gcPBM binding intensity (ln)” value worked out at 9.32. The result for “TATTTATACTCAACTTTCTGTTATTCCAACTTTTTT [XGTACX_negctrl_site410]” reads 6.78; that for “TTATATATTAATAGTAGTACTATATTGAATCACCCC [XGTACX_site2868]”, 7.33.

For the sequence ACGCAATATTAACAAGTGCATTATAACACATAACAT, the “gcPBM binding intensity (ln)” value came to 9.31. The result for “ATAACATTCTATGTTGCACACAAAGAGAAAAATTTA [CACACA_site9322]” reads 9.12; that for “TATACTTTATATATTTTGTATATATATTTTTTTTAT [TGCATGCA_negctrl_site530]”, 6.31; that for “AATAAAAAGTAATAATAACGTATAATTTATTATACT [TGCATGCA_negctrl_site414]”, 6.14. The result for “TCTTGTTATTTAAATGCATGTTGATTTTAAAAAATT [TGCATGCA_site840]” reads 6.72. With “GTAAATTATATAACAAATAAAAATGTACATATATAT [CACACA_negctrl_site408]”, the “gcPBM binding intensity (ln)” value was determined as 6.84. With “ATATATATAGATTGTACACACATTTATGCATATATA [CACACA_site3222]” the figure was 7.35; with “ATGGACAAAAAATATATACACACGAGGAAACCAACA [CACACA_site3726]”, 7.16; with “CGTGGGAGCAGACACACACACACACGCATATTTATA [CACACA_site6290]”, 6.56. Consider “CATGCATACTACATCTGTACACATACATTATATTTA [XGTACX_site2495]”, for which the “gcPBM binding intensity (ln)” value was determined as 7.17.

As to “TTTTGTTTTTACGAATACTTTTTTAATTTTATTTAT [TGCATGCA_negctrl_site395]”, the “gcPBM binding intensity (ln)” value worked out at 6.08. “ATATATATATATTATACACACAAAAATATTTTGTAT [CACACA_site266]”: the “gcPBM binding intensity (ln)” value was 8.71. With “ATCTATGTTCCTTTTACACACATAATCTTTTTTTTA [CACACA_site5468]”, the “gcPBM binding intensity (ln)” value stood at 7.3. With “AAATTTTCTTTTAAGTGTACGAAATTTAGTATTTCA [XGTACX_site7819]” the figure was 6.09; with “TAAACAGTATGCAACGCATGCGTTGTTATATATAAA [TGCATGCA_site232]”, 7.1; with “ATGTATTTATTATTTAGTACACATTATTTTCTTATA [XGTACX_site6365]”, 6.48.

“TTTTTGTTTGTTCACGACTACATTATGTCATAAATG [CACACA_negctrl_site597]”: the “gcPBM binding intensity (ln)” value was found to be 6.52. With “TATATATAAATATATACACACATGAAAATAAATAAA [CACACA_site2514]” the figure was 6.71; with “ATTTTTTTTTTTTTTTTTTTATTCTTAATTCATATA [CACACA_negctrl_site342]”, 6.2; with “ATAGTTATTTTATAGCGTACACAATAAATATATAAA [XGTACX_site4445]”, 6.75. With “CACAGAAATAGAGATACACACACACCGATATTTATG [CACACA_site9313]” the figure was 6.75; with “GTCATATATTATAATAGTACATAAATAATTGATGCC [XGTACX_site3567]”, 6.67. In the case of “TTTTTCTATATTTTCTTTTATAAAATATATAATTTT [GTGCAC_negctrl_site345]”, the “gcPBM binding intensity (ln)” value came to 6.11.

As for “ATATGATAAATTATATGTACTTAAAATATATTATAA [XGTACX_site5904]”, the “gcPBM binding intensity (ln)” value was 6.21. With “TGGCAAAATAGGCACACACACATATACATCTATATT [CACACA_site6626]” the figure was 6.86; with “TTTTTTTTTAGAAAAACATGCATGTCCTAAAAATAA [TGCATGCA_site684]”, 6.45. With “AAAAAAAAAAAAAAAAAAAAAAAAACAATGAATTTA [GTGCAC_negctrl_site698]” the figure was 7.07; with “AGTAGATATAATTATAGTACTTTGATGTTTTCTTTA [XGTACX_site5038]”, 6.28. With “ATACATATATTTTTATGTACATATATTTTTTTTGTA [XGTACX_site4546]”, the “gcPBM binding intensity (ln)” value was determined as 6.42. The result for “TAAAGTACAGGAGTAAATTGAAAAAAAAAAAAAAAA [CACACA_negctrl_site1410]” reads 6.22; that for “ATAAATAAATAAATACGTACATATATATATATATAT [XGTACX_site8838]”, 9.5; that for “TATAATATTCCTTTTTAACACACATATGAACAAATA [CACACA_site7932]”, 6.77. The result for “GTTATACACATATATACACACATATGTAGATATATA [CACACA_site7529]” reads 7.47; that for “TTGATATCTTTTTTTTGTACATATATTTATAAGTAA [XGTACX_site3538]”, 6.71. With “TTTTTTTAAATTATATGTACATAATTTTAATTTTAT [XGTACX_site5086]” the figure was 6.43. For the sequence “TTTTAGAGTGATATATATTAACTTTTAATAAAAAAA [CACACA_negctrl_site611]”, the “gcPBM binding intensity (ln)” value was determined as 5.99. As for “AAAATATAAGCCACTACACACATATATAAATGTATA [CACACA_site2639]”, the “gcPBM binding intensity (ln)” value was determined as 6.38. Turning to “AGGTCCTACACCAATAAATATCATATATATATTATA [CACACA_negctrl_site568]”, the “gcPBM binding intensity (ln)” value turned out to be 6.35. Consider “TTATAACAAAAAATTAAAGAAAGAGAATAAGTGAAA [CACACA_negctrl_site975]”, for which the “gcPBM binding intensity (ln)” value was found to be 6.77. The result for “TTAACTATAATAAAATGTACATATGTAACATATATA [XGTACX_site7790]” reads 6.45; that for “TTGTACATCTTTTGCACACGTAATGTTATTAAAATA [CACACA_site4827]”, 10.7; that for “TGTATATTTGTTGTTACACACATATATTTTTTTTTT [CACACA_site128]”, 6.6.

As for “TTACCTATTCTAAAATGTACACATTATATATGTGCT [XGTACX_site5776]”, the “gcPBM binding intensity (ln)” value came to 6.56. With “ACATGTTTCATATGTTGTACTAACTTAAATATAAAT [XGTACX_site6412]”, the “gcPBM binding intensity (ln)” value is 6.37.

As to “ATGATTTTTTTTATTTTTTAGCTAGAGCTAGCTTAT [CACACA_negctrl_site433]”, the “gcPBM binding intensity (ln)” value worked out at 6.3.

Regarding “TATGGAAGAAAATATACACACAAAAAAAAAAAATGG [CACACA_site4924]”, the “gcPBM binding intensity (ln)” value was 6.94. The result for “AACACTCAAAAAAATTTAAATAAAAAAAAAAAAAAA [CACACA_negctrl_site680]” reads 6.32; that for “TATGAATGCTTTTATGCACACGTACAAAAATATTAT [CACACA_site8851]”, 9.99; that for “ATATGTTAAAAATTCACACAAAAAAGTATACAGATA [CACACA_site4179]”, 6.8. As to “AAAAAATTAAATAATTACAAAAAAATAAAATAAAAA [GTGCAC_negctrl_site638]”, the “gcPBM binding intensity (ln)” value is 6.44. “CCAACATATATTATCACACACATATATATATATATA [CACACA_site2016]”: the “gcPBM binding intensity (ln)” value was 9.3. The result for “ATATTAGATTAATTTACACACAGAAAATGAGATTTT [CACACA_site541]” reads 6.23. With “AATAAACAAATATGTACACACATATACCTATAAATA [CACACA_site7358]” the figure was 6.43. For the sequence “TAGAGTATATATAAATGTACATATTTTATGCTAATT [XGTACX_site7821]”, the “gcPBM binding intensity (ln)” value was 6.64.

With “ATGTTTACATATTAGGGTACATAATAAATTGCATAT [XGTACX_site6712]”, the “gcPBM binding intensity (ln)” value worked out at 7.18.

Consider “TTTTAAACAAGACACACACACATATATATATATATA [CACACA_site925]”, for which the “gcPBM binding intensity (ln)” value came out at 9.39. In the case of “TTATTGTAAATATATGCATGTGCAAAATGAAAAAAA [TGCATGCA_site399]”, the “gcPBM binding intensity (ln)” value is 10.5. In the case of “GAATGTATAAAATGAACACACGCCAAATTAAATGAA [CACACA_site3044]”, the “gcPBM binding intensity (ln)” value was found to be 6.39. With “CATGTATTTTATATTACACACTAATATTATATATAT [CACACA_site1508]”, the “gcPBM binding intensity (ln)” value was 6.76. The result for “AAAAATAATGCACATATATATAATATGTATATGTAT [CACACA_negctrl_site443]” reads 11.1. The result for “ATAATTATAAAATAAACACACATATATATTTATATG [CACACA_site440]” reads 6.29. Regarding “ATTATGTTATATATATGTACATATATAATGTTCATA [XGTACX_site6184]”, the “gcPBM binding intensity (ln)” value is 6.48. The result for “AATAAATAAACAAATTAACACACAGAATTTTTTTTT [CACACA_site8485]” reads 6.35; that for “ATAAAATAAAAAAGTAGTACACACTTCACGATATTT [XGTACX_site8289]”, 6.39. The result for “AAACAATACATATATTGTACATATATTATATTATAT [XGTACX_site8136]” reads 6.4. For the sequence “AAAAAATCAAAACACACACACACACCCAAAAAAAAA [CACACA_site1444]”, the “gcPBM binding intensity (ln)” value worked out at 6.72.
